Reference: PubChem BioAssay (NCATS)
“And” between values parts separate entries of the source, which are not always exact repeats. Identical values can stand only once. Inconclusive means that the source gave no clear call. Such entries were picked first, then a sample of the others. Potencies of inconclusive entries are left out as doubtful fits. The source made the active and inactive calls. Calls follow the shape of the dose curve; as a rule, active = well fitted inhibition curve with a large enough effect; inconclusive = small, poorly fitted or top-dose-only effect; inactive = flat fitted curve, though single readings scatter.

system: Zika virus NS2B-NS3 protease; assay: Primary screen GU AMC qHTS for Zika virus inhibitors (AID 1347154); conditions: Zika NS2B-NS3 unlinked protease, AMC fluorogenic substrate; series mostly up to 54.1 µM; activity change, negative = inhibition: at the top concentration; also: nearly all actives have a fitted effect of over 70% in size;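 as to activity change, negative = inhibition: 0% = no-inhibitor control and -100% = no-enzyme control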
How it was run: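 Unlinked Zika NS2B hydrophilic domain–NS3 protease complex at 25 nM in 10 mM Tris-HCl pH 8.0, 0.01% Tween 20, with an AMC peptide substrate. Fluorescence change (340/450 nm) over 15 min at room temperature, normalized to controls, fitted to 4-parameter Hill.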
Potency is read from the fitted curve at half-maximal effect; tags tell the direction and shape of the fitted curve.

Row | Structure (SMILES) | Potency | activity change, negative = inhibition
1 | CNC(=O)c1c(-c2ccc(F)cc2)oc2cc(N(CCO)S(C)(=O)=O)c(C3CC3)cc12 | active: 27.1 µM | 
2 | CCOC(=O)c1ccc(C#Cc2ccc3c(c2)C(C)(C)CCS3)nc1 | active: 31.6 µM and active: 21.5 µM | 
3 | CCCCCCCCCCCCCCCC(=O)O[C@H]1[C@@H](O)[C@@H](O)[C@@H]([C@H](NC(=O)[C@@H]2C[C@@H](CCC)CN2C)[C@H](C)Cl)O[C@@H]1SC | inconclusive [inhibitor, partial curve] | 
4 | C=C1CCC2[C@](C)(CO)C(O)CC[C@]2(C)C1CC=C1C(=O)OCC1O (stereo partly drawn) | inconclusive [inhibitor, single point] | 
5 | N#CC(=C1Nc2ccccc2S1)c1ccnc(OCc2ccc(CN3CCOCC3)cc2)n1 | inconclusive [inhibitor, full curve] | 
6 | O=C(c1ccc(C=Cc2n[nH]c3ccccc23)cc1)N1CCNCC1 | active: 7.64 µM | 
7 | CCc1cc(-c2n[nH]c(C)c2-c2ccc3c(c2)OCCO3)c(O)cc1O | inconclusive [inhibitor, partial curve, poor fit] | 
8 | Cc1ccc(C(=O)Nc2ccc(CN3CCN(C)CC3)c(C(F)(F)F)c2)cc1C#Cc1cnc2cccnn12 | active: 34.1 µM | 
9 | CNC(=O)c1ccc2c(C(=Nc3cccc(CN(C)C)c3)c3ccccc3)c(O)[nH]c2c1 | inconclusive [inhibitor, partial curve] | 
10 | Cc1csc(-c2nnc(Nc3ccc(Oc4ncccc4-c4ccnc(N)n4)cc3)c3ccccc23)c1 | inconclusive [inhibitor, full curve] | 
11 | COc1cccc2c1C(=O)c1c(O)c3c(c(O)c1C2=O)C[C@@](O)(C(=O)CO)C[C@@H]3O[C@H]1C[C@H](N)[C@@H](O)[C@H](C)O1 | inconclusive [inhibitor, single point] | 
12 | Cc1cnc(NC(=O)C2=C(O)c3ccccc3S(=O)(=O)N2C)s1 | inconclusive [inhibitor, full curve, poor fit] | 
13 | CCOc1ccn(-c2ccc(F)cc2)c(=O)c1C(=O)Nc1ccc(Oc2ccnc(N)c2Cl)c(F)c1 |  | inactive: -7.98%
14 | Cc1cc(-c2ncc(CC(=O)Nc3ccc(-c4cnccn4)cn3)cc2C)ccn1 | inconclusive [inhibitor, full curve] | 
15 | COc1ccc(C2(C#N)CCC(C(=O)O)CC2)cc1OC1CCCC1 (stereo not drawn) |  | inactive: 9.38%
16 | Cn1cc(-c2ccc3nnc(Sc4ccc5ncccc5c4)n3n2)cn1 | inconclusive [inhibitor, full curve] | 
17 | CC(C)[C@H](C(=O)Nc1ccc(C(=O)NO)cc1)c1ccccc1 | inconclusive [inhibitor, partial curve] | 
18 | CC[C@H](C)C(=O)O[C@H]1C[C@@H](C)C=C2C=C[C@H](C)[C@H](CC[C@@H]3C[C@@H](O)CC(=O)O3)[C@H]21 | inconclusive [inhibitor, partial curve] | 
19 | CC(=O)N[C@@H]1[C@H](O[C@@H]2c3ccc(c(Cl)c3)Oc3cc4cc(c3O[C@H]3O[C@H](CO)[C@@H](O)[C@H](O)[C@H]3NC(=O)CCCCCCCC(C)C)Oc3ccc(cc3Cl)C[C@H]3NC(=O)[C@H](N)c5ccc(O)c(c5)Oc5cc(O)cc(c5)[C@H](NC3=O)C(=O)N[C@H]4C(=O)N[C@H]3C(=O)N[C@@H]2C(=O)N[C@@H](C(=O)O)c2cc(O)cc(O[C@H]4O[C@H](CO)[C@@H](O)[C@H](O)[C@H]4O)c2-c2cc3ccc2O)O[C@H](CO)[C@@H](O)[C@@H]1O | inconclusive [inhibitor, partial curve] | 
20 | CN[C@@H]1CN(c2ccc3c(=O)c(C(=O)O)cn(-c4nccs4)c3n2)C[C@@H]1OC | inconclusive [inhibitor, partial curve] | 
21 | COc1ccc(-c2ccc3c(N4CCOC[C@H]4C)nc(N4CCOC[C@H]4C)nc3n2)cc1CO | active: 6.81 µM | 
22 | CO[C@H]1/C=C\O[C@@]2(C)Oc3c(C)c(O)c4c(O)c(c(C=NN5CCN(C6CCCC6)CC5)c(O)c4c3C2=O)NC(=O)C(C)=CC=C[C@H](C)[C@H](O)[C@@H](C)[C@@H](O)[C@@H](C)[C@H](OC(C)=O)[C@H]1C | inconclusive [inhibitor, partial curve] | 
23 | COc1ccc(-c2cc3nccn3c(Nc3ncccc3C(N)=O)n2)cc1OC | inconclusive [inhibitor, partial curve, poor fit] | 
